This experiment addresses syntaxin 1A amino-terminal domain (amino acids 4-193), recombinant (rat). As to the kind of experiment: SPR (BIAcore), syntaxin 1A amino-terminal domain immobilized, FIG. 10B. Background: SPR reads the build-up and loss of mass on a sensor chip optically.

B1: syntaxin 1A carboxyl-terminal domain ([…]), soluble recombinant (other)
chain: not shown
With B1, the Kd is 4.1 µM, the koff turned out to be 0.009 s⁻¹ and the association rate constant (kon) stood at 2200 M⁻¹ s⁻¹.

A word on the Kd: it is the constant that tells how readily two partners part at equilibrium. Usually koff stands for the first-order rate constant of dissociation. A word on the kon: it is the second-order rate constant of association.

Values taken from patent publication US5693476 (The Board of Trustees of the Leland Stanford Junior …, dated 1997).
